# Measurements as given in PubChem BioAssay AID1745853 (National Center for Advancing Translational Sciences (NCATS), 2022).
# The other results are listed elsewhere or left out. The main result of the screen is listed elsewhere. These columns were measured beside it and carry no call.
# Assays:
# Assay in all cases: Primary Screen for Target Class Profiling of Small Molecule Inhibitors of Methyltransferases
# [1] = target: Glycine N-methyltransferase (Homo sapiens) (UniProt Q14749); conditions: purified enzyme, MTase-Glo SAH luminescence; measured here: GNMT inhibition; at 40 µM; stronger effect = lower value
# Outline: (§1)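 Each enzyme was assayed with SAM and its substrate. SAH formation detected by MTase-Glo luminescence; single-point 40 uM screen[…].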
# [2] = target: Guanidinoacetate N-methyltransferase (Homo sapiens) (UniProt Q14353); conditions: purified enzyme, MTase-Glo SAH luminescence; measured here: GAMT inhibition; at 40 µM; stronger effect = lower value
# Outline: as §1
# [3] = target: Histamine N-methyltransferase (Homo sapiens) (UniProt P50135); conditions: purified enzyme, MTase-Glo SAH luminescence; measured here: HNMT inhibition; at 40 µM; stronger effect = lower value
# Outline: as §1
# [4] = target: Nicotinamide N-methyltransferase (Homo sapiens) (UniProt P40261); conditions: purified enzyme, MTase-Glo SAH luminescence; measured here: NNMT inhibition; at 40 µM; stronger effect = lower value
# Outline: as §1
# [5] = target: Phenylethanolamine N-methyltransferase (Homo sapiens) (UniProt P11086); conditions: purified enzyme, MTase-Glo SAH luminescence; measured here: PNMT inhibition; at 40 µM; stronger effect = lower value
# Outline: as §1
# % is scaled to controls: 0 for no effect and ±100 for the full control effect.
SMILES,"activity change, negative = inhibition [1]","activity change, negative = inhibition [2]","activity change, negative = inhibition [3]","activity change, negative = inhibition [4]","activity change, negative = inhibition [5]"
CCCn1c(=O)c2ccccc2n2c(SCc3cc(C)ccc3C)nnc12,-4.27%,0%,5.62%,-10.6%,3.68%
CC1(C)C=Cc2c(ccc3c2[N+]([O-])=C2C3(O)CC34NC(=O)C5(CCCN5C3=O)CC4C2(C)C)O1 (centres undefined),-5.37%,-7.34%,2.37%,-18.2%,-0.806%
Cc1cnc(-c2cc(N3CCN(C(=O)CCS(C)(=O)=O)CC3)ncc2Cl)c(C)c1,4.88%,3.44%,10.7%,-20.6%,0.441%
CCCn1c(=O)c2ccc(C(=O)NCC(C)C)cc2n2c(SCC(=O)c3ccccc3)nnc12,6.36%,0.455%,6.9%,8.33%,5.24%
CNC(=O)c1cc[nH]c1C1CCCN(C(=O)c2ccc(Cn3cncn3)o2)C1 (centres undefined),-5.27%,-8.61%,-3.26%,-12.4%,-10.1%
CC(C)CCN1CCC2(C1)C(=O)N(c1ccccc1)c1ccccc12 (centres undefined),-4.6%,-2.52%,-4.35%,-17%,-5.95%
C=C1C(OC(C)=O)CCC2(C)CCC(C(C)(C)O)CC12 (centres undefined),2.35%,10.5%,5.92%,-4.63%,3.02%
COc1cccc(Cn2nc3n(CCC(C)C)c(=O)c4ccc(C(=O)NC5CCCC5)cc4n3c2=O)c1,4.67%,1.84%,11.4%,0.538%,5.69%
Fc1ccc(N2CCCCC2)c(NC(=S)c2ccncc2)c1,-5.01%,-13.6%,-1.27%,-26.7%,-56.5%
O=C(Nc1ccc2c(c1)OCCO2)N1CCCCC1c1nc(CCOCC2CC2)no1 (centres undefined),-4.55%,-8.09%,-1.62%,-7.61%,1.36%
COc1cccc(CN2C(=O)c3cc4ccccc4n3CC2(C)C(=O)NC2CCCC2)c1OC (centres undefined),4.54%,3.26%,4.58%,-5.39%,-0.136%
CC(C)OCCCn1c(=O)c2ccccc2n2c(=O)n(Cc3c(F)cccc3Cl)nc12,-11%,-1.09%,2.35%,-18.8%,-4.52%
Cc1ccc(C(=O)N2CCC3(CC2)CC(c2ccccc2)C(=O)N3C)s1 (centres undefined),-0.085%,-2.93%,2.66%,-0.947%,-10.8%
Cc1ccc(C(=O)Nc2ccc(Oc3cc4cnn(C)c4cc3-c3cn[nH]c3)c(F)c2)c(=O)n1-c1ccc(F)cc1,4.92%,-11.6%,-10.1%,-34%,4.49%
N#CCNC(=O)c1ccc(-c2ccnc(Nc3ccc(N4CCOCC4)cc3)n2)cc1,-43%,-3.26%,0.68%,-11.7%,-0.022%
Cc1ccc(N2C(=O)c3cc(C4CC4)nn3CC2(C)C(=O)NC2CCCCCC2)cc1Cl (centres undefined),-5.18%,2.59%,0.93%,-6.08%,0.323%
CC(C)CCn1c(=O)c2ccc(C(=O)NCC(C)C)cc2n2c(=O)n(CC(N)=O)nc12,-4.12%,1.97%,-1.61%,-19.6%,-7.55%
CC(C(=O)N1CCCCC1)n1ccc2cc(S(=O)(=O)N3CCCC3)ccc21 (centres undefined),4.35%,7.96%,2.98%,0.706%,1.46%
CN(C)C[C@@H]1CN(c2ncccn2)C[C@H]1NS(=O)(=O)c1cccnc1,1.11%,-2.49%,0.339%,0.958%,1.21%
CCOC(=O)c1cc2n(n1)CC(C)(C(=O)NCc1ccccc1)N(c1ccc(C)c(C)c1)C2=O (centres undefined),-4.27%,3.28%,-1.23%,-4.35%,-4.72%

SMILES,"activity change, negative = inhibition [1]","activity change, negative = inhibition [2]","activity change, negative = inhibition [3]","activity change, negative = inhibition [4]","activity change, negative = inhibition [5]"
Cc1nn(C)c(C)c1-c1nc2cc(S(=O)(=O)N3CCCC3)ccc2n1C,-5.06%,-6.41%,-2.15%,-10.2%,-4.03%
Cc1nc2c(NC3CCN(C(=O)c4cnccn4)CC3)cccn2n1,-5.32%,0.069%,-1.88%,-2.72%,-2.79%
CN(Cc1ccc(OC(F)(F)F)cc1)Cc1ccccc1C(F)(F)F,-0.032%,0.805%,1.19%,-2.81%,5.59%
Cc1ccc(S(=O)(=O)c2nnn3c2nc(N2CCN(c4ccccn4)CC2)c2ccccc23)cc1C,-2.46%,1.3%,-4.61%,-2.81%,-0.678%
CCCn1c(=O)c2ccc(C(=O)NC3CCCCC3)cc2n2c(=O)n(Cc3ccccc3)nc12,5.41%,1.33%,8.08%,7.49%,7.62%
CN(CCc1ccc(Nc2ncc(-c3cccnc3)s2)cc1)Cc1ccccc1,-16.7%,1.44%,-59.3%,-64.2%,-9.61%
CCCNC(=O)N1Cc2c(sc3c2CCCC3)-n2cccc2C1c1cccc(OCC)c1 (centres undefined),-3.41%,4.32%,-2.37%,-4.21%,1.22%
Cn1c2c(c3ccccc31)C(C(=O)NCc1ccc(F)cc1)N(c1cccc(Cl)c1)C(=O)CS2 (centres undefined),-1.9%,0.004%,10.1%,7.58%,5.8%
CC1CC(O)C2(OC1=O)OC1C(O)C3C4CCC5CC(OC6OC(CO)C(O)C(O)C6OC6OC(C)C(O)C(O)C6O)CCC5(C)C4CCC3(C)C1C2C (centres undefined),1.7%,-7.15%,7.92%,-19.5%,1.69%
CC1(C(=O)NC2CCCC2)Cn2c(nc3ccccc32)C(=O)N1Cc1ccco1 (centres undefined),2.8%,0.59%,5.42%,2.14%,0.743%
Cc1ccc(CN2C(=O)c3cc4ccccc4n3CC2(C)C(=O)NC2CCCCC2)cc1 (centres undefined),-3.95%,4.25%,1.6%,-11.3%,-4.06%
CCC1C(=O)N(C)c2cnc(Nc3ccc(C(=O)NC4CCN(C)CC4)cc3OC)nc2N1C1CCCC1 (centres undefined),-35.9%,-14.7%,-59.2%,-58.9%,-38%
CC1(C(=O)NC2CCCCCC2)Cn2c(cc3sccc32)C(=O)N1CC1CCCO1 (centres undefined),-4.89%,4.72%,1.99%,-4.93%,-3.96%
CN1CC[C@@H](NC(=O)Nc2ccc(C#N)cc2)C[C@@H]1c1nc2ccccc2[nH]1,-0.372%,8.38%,11.9%,-12.2%,5.05%
CO[C@H]1[C@H](NC(=O)c2ccc(C)c(O)c2)c2ccccc2C12CCNCC2,-3.92%,-3.72%,-0.215%,-8.67%,-2.44%
CCC1(C(=O)NCCCN2CCCC2=O)CCCCC(=O)N1 (centres undefined),-0.674%,0.721%,1.26%,-3.94%,-0.822%
CC(C)c1ccc(N2CC(C(=O)N(C)C3CCSCC3)CC2=O)cc1 (centres undefined),-9.2%,-5.62%,-4.64%,-7.49%,-6.03%
O=C(NCc1ccc2c(c1)OCO2)c1ccc2c(=O)nc3c(-c4ccc(Cl)cc4)n[nH]n3c2c1,-5.61%,0%,1.41%,-8.82%,-5.54%
CCCCNc1ncc2c(-c3ccc(F)cc3)nn(CC3CCC(N)CC3)c2n1 (centres undefined),-8.17%,4.49%,-12.4%,-15.2%,-3.73%
N#Cc1ccc(-c2csc(NN=C3CCCC3)n2)cc1,-70.6%,,-9.29%,0.848%,25.1%

SMILES,"activity change, negative = inhibition [1]","activity change, negative = inhibition [2]","activity change, negative = inhibition [3]","activity change, negative = inhibition [4]","activity change, negative = inhibition [5]"
Cc1cc2c(cc3n2CC(C)(C(=O)NC2CCCCCC2)N(CCCN2CCCCC2)C3=O)o1 (centres undefined),7.35%,0.385%,-0.631%,1.34%,3.37%
CCn1cc(CN2CC[C@H](CNC(=O)COC)[C@H](N(C)C)C2)c(C)n1,-0.073%,0.625%,0.647%,-0.989%,-11.9%
O=C(/C=C/c1ccc(O)cc1)c1ccc(O)cc1O,-10.8%,2.7%,0.176%,-11.1%,-3.48%
CC(C(N)=O)N1CCn2nc(CCC(=O)N3CCOCC3)cc2C1 (centres undefined),-0.729%,-0.236%,-0.136%,1.48%,0.672%
COc1cccc(Nc2nn3c(=O)c4ccc(C(=O)NCc5ccccn5)cc4nc3s2)c1,-8.87%,3.32%,2.49%,1.16%,-1.21%
Cc1ccc(CNC(=O)C2(C)Cn3nc(C(=O)NCc4ccco4)cc3C(=O)N2C)cc1 (centres undefined),2.45%,2.93%,3.62%,1.33%,3.67%
Cc1nn(C)c2c(=O)n(CC(=O)N3CCN(c4ccccn4)CC3)ccc12,6.76%,2.36%,12.6%,5.49%,6.48%
CN1C(=O)CC(C(=O)O)C12CCN(Cc1cccc(Cn3cccn3)c1)CC2 (centres undefined),-2.25%,-7.49%,-2.75%,-12.4%,-7.8%
CC(C)Cn1c(=O)c2ccccc2n2c(CCC(=O)Nc3ccccc3)nnc12,-7.65%,-2.16%,-6.93%,-6.08%,-11.1%
CCOc1ccc(CCN2C(=O)c3ccc(-c4ccco4)n3CC2(C)C(=O)NCc2ccccc2)cc1 (centres undefined),-5%,3.88%,-5.29%,-6.9%,-5.24%
CCn1ccc2oc(C)c(C(=O)N3CCN(c4cccc(C)c4C)CC3)c2c1=O,-3.59%,1.62%,-0.064%,-2.84%,2.63%
O=S(=O)(c1ccc(F)cc1)c1nnn2c1nc(Nc1ccc(F)cc1)c1ccccc12,-0.596%,0%,6.76%,2.93%,1.34%
CC(C)Oc1ccc(CN2C(=O)c3nc4ccccc4n3CC2(C)C(=O)NC2CCCCC2)cc1 (centres undefined),-1.66%,3.76%,3.62%,-1.21%,-3.73%
O=C1CCC(C(=O)N2CCSCC2)CN1CCc1cccc(F)c1 (centres undefined),-2.92%,-4.94%,-2.14%,-9.46%,-6.25%
CCc1ccccc1NC(=O)CSc1nnc2n(CCC(C)C)c(=O)c3ccccc3n12,-6.25%,3.83%,3.85%,-20%,-2.46%
CC(C)(C(=O)O)c1cnc(N2CC[C@H](CO)[C@H](O)C2)nc1N1CCOCC1,-3.53%,-4.44%,-0.424%,-11.1%,-6.7%
C[C@H]1[C@H](C)CC[C@]2(C(=O)OC3OC(CO)C(O)C(O)C3O)CC[C@]3(C(=O)O)C(=CCC4[C@@]5(C)CC[C@H](O[C@@H]6O[C@@H](C)[C@H](OC7OC(CO)C(O)C(O)C7O)[C@@H](O)[C@H]6O)C(C)(C)C5CC[C@]43C)[C@H]12 (some centres undefined),-4.41%,1.03%,7.62%,-13.8%,-8.53%
COc1cccc(CN2C(=O)c3cc4ccccc4n3CC2(C)C(=O)NC2CCCC2)c1 (centres undefined),-1.66%,1.21%,-3.31%,-7.91%,-3.56%
CC(C)=CCC[C@@](C)(O)[C@H]1CC[C@]2(C)[C@@H]1[C@H](O)CC1[C@@]3(C)CC[C@H](O[C@@H]4O[C@H](CO)[C@@H](O)[C@H](O)[C@H]4O[C@@H]4O[C@H](CO)[C@@H](O)[C@H](O)[C@H]4O)C(C)(C)[C@@H]3CC[C@]12C (some centres undefined),4.83%,22%,10.3%,7.08%,11%
